# Measurements: publication PMC6919601, “Identification of Plasmodium dipeptidyl aminopeptidase allosteric inhibitors by high throughput screening” (PLoS ONE, 2019)
# The campaign covered roughly 110,000 compounds. About 230 (0.21%) showed an effect of 50% or more. The list shows a part of the results.
# Biological target: DPAP1 (Plasmodium falciparum, UniProt Q8IIJ9)
# Experiment: primary screen, percent inhibition; read by cleavage of a fluorogenic dipeptide substrate; higher = more effect of the substance
# Parameters: species or system P. falciparum D10 trophozoite lysates; single well
# 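Also: 30 min substrate incubation versus DMSO and 10 µM JCP410 controls.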
# Chain of DPAP1 (Q8IIJ9 whole entry, looked up): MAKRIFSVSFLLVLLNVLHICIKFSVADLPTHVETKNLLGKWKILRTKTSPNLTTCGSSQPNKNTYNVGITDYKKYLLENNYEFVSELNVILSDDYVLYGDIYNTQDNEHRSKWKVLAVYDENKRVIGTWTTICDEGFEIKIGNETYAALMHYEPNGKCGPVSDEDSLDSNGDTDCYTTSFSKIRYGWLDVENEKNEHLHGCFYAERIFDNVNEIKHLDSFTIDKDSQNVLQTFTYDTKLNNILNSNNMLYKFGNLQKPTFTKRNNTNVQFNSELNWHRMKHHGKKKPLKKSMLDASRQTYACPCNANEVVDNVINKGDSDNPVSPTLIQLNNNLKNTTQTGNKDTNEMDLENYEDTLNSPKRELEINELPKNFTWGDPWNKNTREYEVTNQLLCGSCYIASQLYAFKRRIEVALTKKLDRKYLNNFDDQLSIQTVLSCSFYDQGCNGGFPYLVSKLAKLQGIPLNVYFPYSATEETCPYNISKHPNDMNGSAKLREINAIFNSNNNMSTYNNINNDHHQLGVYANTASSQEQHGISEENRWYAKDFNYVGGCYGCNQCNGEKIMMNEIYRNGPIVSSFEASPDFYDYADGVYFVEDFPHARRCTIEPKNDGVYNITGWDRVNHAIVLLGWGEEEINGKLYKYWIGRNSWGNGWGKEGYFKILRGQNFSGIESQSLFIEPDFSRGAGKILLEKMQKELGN
row,Structure (SMILES),% Inhibition @ 10 uM
1,COc1ccc(CCNC(=O)C2CCCN2c2nnc(N3CCCC3=O)s2)c(OC)c1 (centres unmarked),-4.26%
2,CN1CCN(C(=O)CN(c2cccc(Br)c2)S(=O)(=O)c2ccccc2)CC1,2.5%
3,CCOC(=O)N1CCC(NC(=O)C2CCN(Cc3nc(-c4ccccc4F)oc3C)CC2)CC1,0.689%
4,COc1ccc(C(=O)/C=C/c2cccc([N+](=O)[O-])c2)cc1,0.968%
5,COc1cc2oc(C(=O)O)c(C)c2cc1Br,3.98%
6,O=C(NCCC1=CCCCC1)c1nnc(Cc2ccc(Cl)cc2)o1,-2.8%
7,Nc1nnnn1/N=C\c1ccc(-c2ccc3c(c2)C(=O)OC3)o1,3.15%
8,CCOc1cccc(C2Nc3cccc4cccc(c34)N2)c1O,3.05%
9,CC(=O)NC1=NC(=O)/C(=C/c2ccc(-c3ccccc3C(=O)O)o2)S1,-2.16%
10,Cc1ccc(NC(=O)CN(C)S(=O)(=O)c2ccc3[nH]c4c(c3c2)CCCC4)nc1,1.97%
11,COc1cc(C2=N/C(=C\c3sccc3C)C(=O)O2)cc(OC)c1OC,1.3%
12,O=C(NCc1ccccc1Cl)C1CCN(S(=O)(=O)c2ccc3nc(O)ccc3c2)CC1,3.31%
13,CCCCc1c(O)nc2c(c1O)C(=O)CC(c1ccccc1)C2 (centres unmarked),-5.63%
14,CCONC(c1ccccc1)(c1ccccc1)c1ccccc1,-2.98%
15,O=C(Nc1cccc(O)c1)c1ccc(C(=O)c2ccccc2)o1,-4.89%
16,CCCc1[nH]nc2c1C(c1ccccc1Cl)C(C#N)=C(N)O2 (centres unmarked),4.39%
17,O=c1oc2c([N+](=O)[O-])cccc2cc1-c1nc(-c2ccc(Cl)c(Cl)c2)cs1,4.4%
18,CCOCCCNC(=O)c1ccc(-c2nc(CS(=O)c3ccccc3)c(C)o2)cc1 (centres unmarked),-7.48%
19,Cc1ccc(S(=O)(=O)N2CCSC2c2ccccc2)cc1 (centres unmarked),-4.18%
20,Cc1ccccc1C(=O)c1cccn1CC(=O)NC1CCC(C)CC1 (centres unmarked),-2.25%
21,Cn1ncc(Cl)c1C(=O)Nc1ccc(CN2CCCCC2)cc1,-0.898%
22,Cc1ccsc1/C=C1\SC(N2CCCCC2)=NC1=O,0.408%
23,CC(C)Cn1c2c(c(=O)[nH]c1=O)C(C(F)(F)F)(C(F)(F)F)NC(CCC1CCCCC1)=N2,3.87%
24,COc1ccc(OCc2nc(C#N)c(NCc3ccc(F)cc3)o2)cc1,-3.16%
25,O=C(c1nn2c(C(F)(F)F)cc(-c3cccs3)nc2c1Cl)N1CCCCCC1,-5.92%

row,Structure (SMILES),% Inhibition @ 10 uM
1,CCN(CC)c1ccc(NC(=O)COc2ccc(OC)cc2)cc1,-3.76%
2,Cc1cc(C(=O)NCc2cccs2)n(-c2ccccc2)n1,-0.971%
3,COc1cc(C2C(C#N)=C(N)N(c3nc[nH]n3)C3=C2C(=O)CC(C)(C)C3)cc(OC)c1OC (centres unmarked),-0.105%
4,CCOc1cc(C2CC(=O)NC3=C2C(=O)CC(c2ccc(OC)c(OC)c2)C3)ccc1O (centres unmarked),4.23%
5,CCn1ncc(Br)c1C(=O)Nc1ccn(C23CC4CC(CC(C4)C2)C3)n1,5.07%
6,COc1cc(CN2CCC3(C=Cc4ccccc43)CC2)cc(OC)c1,-1.64%
7,Cc1csc(NC(=O)CCc2c(C)nc3nc(CNC(=O)OC(C)(C)C)nn3c2C)n1,-0.659%
8,COc1cc2c(cc1OC)CN(S(=O)(=O)c1ccc(Oc3ccccc3OC)cc1)CC2,-5.46%
9,Cc1ccc(S(=O)(=O)N2CCOCC2)cc1C(=O)Nc1ccccc1,9.6%
10,Cc1cccc2c1NC1(CCCC1)CC2C (centres unmarked),4.33%
11,Cc1ccc(CNC(=O)COc2ccc(Cl)cc2Cl)cc1,-1.12%
12,O=C(O)c1ccc(Cl)c(-c2ccc(/C=C3\SC(=O)N(CC(=O)N4CCOCC4)C3=O)o2)c1,-1.22%
13,N#CC1=C(N)Oc2[nH]nc(-c3ccccn3)c2C1c1ccc(O)cc1 (centres unmarked),2.67%
14,CCN1CCC(N2CC3(C)CC2CC(C)(C)C3)CC1 (centres unmarked),-0.0953%
15,O=C(c1ccccc1)N1c2ccccc2-c2ccccc2S1(=O)=O,0.83%
16,COC(=O)c1sc(N2C(=O)c3oc4cc(C)c(C)cc4c(=O)c3C2c2ccc(O)cc2)nc1C (centres unmarked),0.415%
17,CCOc1ccc2nc(Cl)c(C3CC(c4ccc(C)cc4)=NN3S(C)(=O)=O)cc2c1 (centres unmarked),7.78%
18,COc1cc(CN2CCC(O)CC2)cc(Br)c1O,2.47%
19,CC(C)(C)NS(=O)(=O)c1ccc(NS(=O)(=O)c2ccc(Br)cc2)cc1,-0.185%
20,Fc1ccc(-c2noc3ncnc(NCCC4=CCCCC4)c23)cc1,8.65%
21,O=C(c1ccc(Cl)cc1Cl)N1CCN(c2ccc3c(c2)OCO3)CC1,4.88%
22,O=c1cccc2n1C[C@H]1C[C@@H]2CN(Cc2c(Cl)cccc2Cl)C1,3.42%
23,COc1ccccc1-c1nc2c(c(SCC(=O)N3CCCCC3)n1)Cc1c(CO)cnc(C)c1O2,2.75%
24,CCN1C(=O)/C(=C\c2cc(C)n(-c3ccccc3C(=O)OC)c2C)C(C(=O)OC)=C1C,1.63%
25,NC(=O)C1CCN(C/C=C/c2ccccc2)CC1,5.03%

row,Structure (SMILES),% Inhibition @ 10 uM
1,O=C1CCCC2=C1C(c1ccccc1C(F)(F)F)C1=C(CCCC1=O)O2,-0.305%
2,CC(=O)N1CCN(Cc2ccccc2C(F)(F)F)CC1,1.88%
3,CSc1cccc(-n2nnc(-c3nsc(NC(=O)c4ccc(C)c(C)c4)n3)c2C)c1,4.97%
4,CCCCN(C)C(=O)NCc1noc2ccc(C)cc12,3.51%
5,COc1ccc(N(CC(=O)NC2CC2)S(=O)(=O)c2ccccc2)cc1,2.42%
6,Cc1nn(CC(=O)NCCC2=CCCCC2)c(=O)c2cc3cc(F)ccc3n12,-5.32%
7,Cc1ccc2nc3c(cc(C#N)c(=N)n3C(C)C)c(=O)n2c1,-8.38%
8,Cc1cc(/C=C2/C(=N)N3C(=NC2=O)SN=C3S(=O)(=O)C(C)C)c(C)n1Cc1ccccc1,-7.21%
9,Cc1c(Cl)c(C(F)(F)F)nn1CC(=O)N1CCSCC1,-1.2%
10,CC1CN(C(=O)c2ccc3c(c2)OCO3)OC(c2cccs2)O1 (centres unmarked),2.36%
11,Cc1ccc(OCC(=O)N2CCN(c3ccc(F)cc3)CC2)cc1C,-3.92%
12,CCCOc1ccc2nc(C)c(CCC)c(S)c2c1,0.0538%
13,COCCN1C(=O)c2[nH]nc(-c3cc(C)ccc3O)c2C1c1ccc(OC)c(OC)c1 (centres unmarked),2.21%
14,COc1ccc(CNCc2cc(OC)cc(OC)c2)cc1,-4.16%
15,CC(C)CNc1oc(/C=C/c2cccs2)nc1C#N,4.83%
16,Cc1ccc(/C=C2/NC(=O)N(Cc3ccc(F)cc3)C2=O)o1,3.48%
17,CC(NC(=O)C(=O)NC(C)C1COc2ccccc2O1)C1COc2ccccc2O1 (centres unmarked),-1.06%
18,CCC(=O)Nc1nc2nc(C)c(Cc3ccccc3)c(O)n2n1,3.66%
19,C=CCSC1=C(C#N)C(c2ccccc2)CC(=O)N1 (centres unmarked),-5.79%
20,Cc1ccc(CCNC(=O)COc2ccc3c(c2)C(=O)CC(C)(C)O3)cc1,-4.97%
21,Cn1c(=O)c2c(nc(CN3CCOCC3)n2Cc2ccc(F)cc2)n(C)c1=O,1.23%
22,Cc1ccc(S(=O)(=O)N(CC(=O)N2CCN(Cc3ccccc3)CC2)c2ccccc2F)cc1,-1.59%
23,CCCn1c2ccccc2c2cnn(CC(=O)NCCc3c(C)noc3C)c(=O)c21,1.43%
24,N#CC1=C(N)Oc2[nH]nc(-c3ccccn3)c2C1c1ccncc1 (centres unmarked),-1.98%
25,COC(=O)c1ccc(/C=c2\sc3nc4cc(C)c(C)cc4n3c2=O)cc1,10.9%

row,Structure (SMILES),% Inhibition @ 10 uM
1,COc1ccc(C(=O)N2CC3(C)C4CCC3(C)C2(C#N)C4)cc1 (centres unmarked),0.214%
2,CC1C2CC(CC2(O)C#Cc2ccccc2)C1(C)C (centres unmarked),-2.77%
3,Cc1c(Cc2ccccc2)sc(NC(=O)Nc2ccc(Cl)cc2)c1C(N)=O,-3.43%
4,CCc1ccc(C2CC(=O)N3CN(Cc4ccco4)CSC3=C2C#N)cc1 (centres unmarked),33.6%
5,Cc1cc(C)nc(SCc2ccc(C#N)cc2Cl)n1,-1.32%
6,COC(=O)CCC(=O)Nc1cccc(C(=O)N[C@@H](CC(C)C)C(=O)NCC#N)c1,6.4%
7,CCCN(CCC)S(=O)(=O)c1ccc(C)c([N+](=O)[O-])c1,-6.46%
8,CCC(NC(=O)c1cc(C)oc1C)c1ccccc1 (centres unmarked),8.22%
9,O=C(CCc1nc2cccnc2n1-c1ccccc1)NCc1cccs1,-1.08%
10,CCc1ccc(-c2[nH]nc3nc(-c4cccc(OC)c4O)cc(C(=O)O)c23)cc1,5.88%
11,Cc1ccc(CNc2ncnc3c2cnn3-c2cccc(C)c2)cc1,1.42%
12,CCCCNC(=O)CCn1nc(-c2ccccc2)c2ccccc2c1=O,-1.17%
13,Cc1ccc(-n2nc3c(c2NC(=O)Cc2ccc(F)cc2)CS(=O)(=O)C3)cc1,-0.349%
14,O=C(O)C1CCCN1CP(=O)(O)O (centres unmarked),-3.69%
15,Cc1nc2nncn2c(NCc2ccccc2Cl)c1C,-1.02%
16,Cc1ccnc2nc(NC(=O)c3ccco3)nn12,3.66%
17,CN(CCC#N)S(=O)(=O)c1ccc2ncc(C(=O)NCCc3ccccc3)c(O)c2c1,-1.68%
18,O=C(NCc1ccccn1)c1cc2c(Cl)ccc3c2n1CCO3,3.8%
19,CC1CCN(S(=O)(=O)N2CCCC(C(=O)NCc3ccc(Cl)cc3)C2)CC1 (centres unmarked),2.75%
20,COc1ccc2c(CNCc3cccnc3)c(C(=O)O)n(Cc3ccccc3C)c2c1,5.94%
21,O=[N+]([O-])c1c(N2CCOCC2)ccc2nonc12,-8.15%
22,O=C(Nc1ccc(Cl)cc1)c1cc2nc(C(F)F)cc(C(F)F)n2n1,-5.13%
23,CCN(CC)CCCCC(C#N)c1ccccc1 (centres unmarked),-5.79%
